This is one part of the list.
T1: UNK ZnF1-3 (human, UniProt Q9C0B0 31-174)
T1 sequence: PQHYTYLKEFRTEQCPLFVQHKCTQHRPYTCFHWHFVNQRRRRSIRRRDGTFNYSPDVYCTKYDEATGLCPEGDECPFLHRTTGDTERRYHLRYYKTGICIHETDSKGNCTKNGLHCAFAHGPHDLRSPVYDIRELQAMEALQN

B1: chr4:148551591:148551592:-_ENSMUSG00000063077_ENSMUST00000060537|mus_hu|mus_mus_mus_hu_False|1_58 (ssRNA)
RNA: GGGAGUUCUACAGUCCGACGAUCACCUGACAAAAUUAAAUAUCCCUGUAAAUUAGACAAUAAGCAGCAGGCAACAAAGUCUAUGCUUUGGAAUAUGUGCCAGGAAAAGUCAUCUUGUUUUUAGAUCUCAAGAGACACAACCAUCAACAGAGGAUUGAGCAUCA
B2: chr2:216981417:216981418:+_ENSG00000079246_ENST00000392132|hu_hu|hu_hu_hu_mus_True|8_68 (ssRNA)
RNA: GGGAGUUCUACAGUCCGACGAUCCUGAUACUGGUCCUUGCCAGCAAGGGCAUUAUCAGUGCCAUCUGUACCAAACAGGACUAACGCAAUCUCAUCUUUGCUCUCCGAAAAUACCUGUCGUUGGACAAACAUGGUUAUCACUUUCAACAGAGGAUUGAGCAUCA
B3: chr14:34206250:34206251:-_ENSMUSG00000021936_ENSMUST00000111945|mus_hu|motif|central (ssRNA)
RNA: GGGAGUUCUACAGUCCGACGAUCUGCAGUCCUGGCCAGACCGAAGUCAAGAAUCUUCAAAGUGCAAUCAGAUUUUACGGCGGUAUUACUGGGCUUUAAGUCCCGAUGAAUAAUUCCAGCAGAAUGAAGGUGCUUGAUUCCACACAACAGAGGAUUGAGCAUCA
B4: 43599961_43601292_1323_3pUTR_ENSG00000189221_ENST00000338702|human|control|control (ssRNA)
RNA: GGGAGUUCUACAGUCCGACGAUCUCCAUAUUGAGUCAUGAUCCCAGGAGGGAAGUAGGCCGUGUAGCAGCCCCCAGAGUACUGCUCCUCACACCAGUUCUUCUCUUCAUAAUGCACUGGAUGUAAAGCUUCUUGGGAUCCCAGCAACAGAGGAUUGAGCAUCA
B5: 64005715_64005835_4327_CDS_ENSG00000103657_ENST00000443617|human|control|control (ssRNA)
RNA: GGGAGUUCUACAGUCCGACGAUCCUCAGGAAGGUCUGUGCUGACCCUUCGCUCUUGCUGAGACUGAGGAGGUGGAUCAUCAGCUCGAGCCCCAGACCCUGCCCCACUGUUCAUUCUAUCUCGGUCUCGGCUACGAGCUACUUCCAACAGAGGAUUGAGCAUCA
B6: chr11:77340908:77340909:-_ENSG00000074201_ENST00000525064|hu_hu|hu_hu_hu_mus_True|38_108 (ssRNA)
RNA: GGGAGUUCUACAGUCCGACGAUCGUUUCGGUCCCUGGACACCGCAUGUAAACUAAUGGUGGGGUAUUCCAGUGAGAAUCCUAAUCCCGAACCAUCUAACCAAGACAGGCGGCUCUCCGCGAUGUAAAGCGUGCCGGUGCCGAGCAACAGAGGAUUGAGCAUCA
B7: 38068702_38068822_3813_3pUTR_ENSMUSG00000021427_ENSMUST00000021864|mouse|control|control (ssRNA)
RNA: GGGAGUUCUACAGUCCGACGAUCCAUACAAGCACACCGCUAACAAGAAAUGAGAACCAGCUGCUCCUCUCUGAACCGAGUAAGGAUUUACUUAGGAAACACAGGCCAAGUUCACGGACUCGUUACAUGGCUGCCGAUGCUACCCAACAGAGGAUUGAGCAUCA
B8: chr10:33214929:33214930:-_ENSG00000150093_ENST00000302278|hu_hu|hu_hu_hu_mus_True|88_108 (ssRNA)
RNA: GGGAGUUCUACAGUCCGACGAUCAACAAGUUCAUUAAAAAACUCUCCUUUAUUAGUAAGACUAAGCACAUUUUUGUAGCUAAAUGGGCUGGUGCAGUUUUGUUCACUUGUACAAGGAUUUCUUAGCUUUGCUGGGGUUGUGCUCAACAGAGGAUUGAGCAUCA
B9: chr15:23003119:23003120:+_ENSG00000068793_ENST00000560848|hu_mus|motif|central (ssRNA)
RNA: GGGAGUUCUACAGUCCGACGAUCUUAUAAAGUUAAGCUUUCAGAUCAAAAGUAGGUUCAGACAUAAUGGAAAAUAGCCCCGGAAAAUUUCAAUAUAGUUUACAUAAAGACAAACAUGCCAUCAGUUACUGGGAUGCUGUGAGCCAACAGAGGAUUGAGCAUCA
B10: chr1:145439819:145439820:+_ENSG00000117289_ENST00000369317|hu_hu|FALSE|FALSE (ssRNA)
RNA: GGGAGUUCUACAGUCCGACGAUCUUUCUUUGUCUCUUGAGUUGGCUGGCUCGGGCGGUCAAGAAAAGCCUUCACCCAGUAGUCUACACACCCAUAUUUUCCUUUGAAGGAUGUUCCCAGAGGCCCCUGAGGAAGCUCAAAGCCCAACAGAGGAUUGAGCAUCA
B11: chr1:150192712:150192713:-_ENSG00000143401_ENST00000314136|hu_mus|FALSE|FALSE (ssRNA)
RNA: GGGAGUUCUACAGUCCGACGAUCGCACCAAACUACACCUGUGUAAAAGCAACAAUGUUUUAAUUAUGGGCUAAAAAUGUCUAAUACAUUAAGCAUGAAUUAUAAAAAUCCAGAAUCUAAAUACAGUGCUAGAGAAUUUCACUACAACAGAGGAUUGAGCAUCA
B12: chr15:31385891:31385892:-_ENSMUSG00000039100_ENSMUST00000090227|mus_mus|motif|central (ssRNA)
RNA: GGGAGUUCUACAGUCCGACGAUCAUUCACUCCUAAACAGACACCCCUAGGCCUUAGUCACUCAUUUCCAUCUAAGGUUCGGUAGGAUUGUCAUGAUUACAAAAUGAGGCACUCAGACAGAUAGACAGGAAUGGAGACAUACAUCAACAGAGGAUUGAGCAUCA
B13: chr3:95733387:95733388:+_ENSMUSG00000015749_ENSMUST00000165307|mus_mus|FALSE|FALSE (ssRNA)
RNA: GGGAGUUCUACAGUCCGACGAUCCACACGGGUGUGGGAGAGAAAGAAAAGAAUAGCAAAUGGAGUCCGACGACUUGGGACUAACUCGGCUGCCCCCACCUCCGAGUCCACACACCCGCGCGCGCACACUCGGGCACGCACACACAACAGAGGAUUGAGCAUCA
B14: chr7:7679991:7679992:-_ENSG00000106399_ENST00000396682|hu_hu|hu_hu_hu_mus_False|48_68 (ssRNA)
RNA: GGGAGUUCUACAGUCCGACGAUCUGGGAUGAAUCUUUUCCAGCUUCCCCACGAAGCACACGGGCCGGUCGAUGAAUUGUGGUAACAUGCCGGCGUUGACGCGCGCUUUGGGGAGCUGCAUUAUGUCCUCCAUGAUUCUGCCGCCAACAGAGGAUUGAGCAUCA
B15: chr3:9412954:9412955:+_ENSG00000134077_ENST00000452837|hu_mus|hu_hu_hu_mus_False|8_48 (ssRNA)
RNA: GGGAGUUCUACAGUCCGACGAUCGGUUGAUAUCUCUUCUUUGAUGGCUGGAUUUUCAUAAUAGUCCAAGAUAUGUGAAUCUGAAGUAUGGCUAGUGUGCUUUUUCUUACCAUCUUUCUCAUCUGCUUUGACUUCUUGUCCACACAACAGAGGAUUGAGCAUCA
B16: chr7:54825262:54825263:-_ENSG00000132432_ENST00000352861|hu_hu|hu_hu_hu_mus_False|38_78 (ssRNA)
RNA: GGGAGUUCUACAGUCCGACGAUCCUGCCGGCUGGGCUCCACAAACUGCAUUACCUGCAUGACUGCCGUUGGAUGGCGGAUUGAGAGCGUAGAGACAACGUAGCACUGAGAGAACCGAGCCCAACGGAACCGGAAGCUGGCAACCAACAGAGGAUUGAGCAUCA
B17: chr10:61154807:61154808:+_ENSMUSG00000020088_ENSMUST00000020285|mus_mus|motif|central (ssRNA)
RNA: GGGAGUUCUACAGUCCGACGAUCAACUCUUUCAUGAGGCAAAAGUCACUUUUUAUAUCUACAAUGGAAAAAAGGAAGGUGCGGCACAGAGAGAUGAAAUUUCACAACAGUAUAAAAGCAAAGCCUGCUGAAACUGGUAACUGCCAACAGAGGAUUGAGCAUCA
B18: chr4:88379012:88379013:+_ENSG00000170502_ENST00000302174|hu_hu|FALSE|FALSE (ssRNA)
RNA: GGGAGUUCUACAGUCCGACGAUCAUCAUUGAUGUCCACCCAUUUCACUUUUCCAGCAUCAUCUCCAGCUUCUAGCAUAAGAUUAUCCAUUAUCUCACCUGUUUCGUCAUGGUAGUUCACAGCUUCUGUCUCCAUCCAUGCAUUCAACAGAGGAUUGAGCAUCA
B19: 32338244_32338364_3061_CDS_ENSMUSG00000024002_ENSMUST00000121285|mouse|control|control (ssRNA)
RNA: GGGAGUUCUACAGUCCGACGAUCCAAAGGCGGUGGGGGUUGGGACUGCACCUUCACGGAAGGGAGUAGUGGUGUGGGAGGCUGCACCUUCUGCAGCUGCUGUAGGUACAACUGCAUCUGCAUGGAGGUGAGGGGUGGGGCAGGCAACAGAGGAUUGAGCAUCA
B20: chr12:72179577:72179578:+_ENSG00000080371_ENST00000261263|hu_hu|FALSE|FALSE (ssRNA)
RNA: GGGAGUUCUACAGUCCGACGAUCGUUUAGCACUUAAGGUCUCUGCAGUGUUAUAAACGUAAUUUAAAAUACUGUUAAUUCUAUAAUUCCAUUGGUAAAAUAAUGUGACUUGGAAUAUGGCAGUCUUCAUGUUGAGGGCAAUGACAACAGAGGAUUGAGCAUCA
B21: chr1:110565788:110565789:+_ENSG00000168710_ENST00000369799|hu_hu|FALSE|FALSE (ssRNA)
RNA: GGGAGUUCUACAGUCCGACGAUCCUUCUAUUUUUGUUUUUAAUGUCUGUCUCUCUGAUCAGUGGAAAAGUGAAAAUUUCUAGUAUCUAGCACUAACGUAUGACCCAACUUUGAGGGAUCACAAGCUAGAACAAGUUGAGGAUUCAACAGAGGAUUGAGCAUCA
B22: chr18:34481789:34481790:+_ENSMUSG00000005871_ENSMUST00000115781|mus_mus|FALSE|FALSE (ssRNA)
RNA: GGGAGUUCUACAGUCCGACGAUCAACAAGUGAACAGAAGUAUAGAGAAAAAUUAUCCUGAAUAUCAGAGGAAAGAAAGUCUAUUUAGCACCAAGAACAGCAUUAUACACAGAACAUACAGUCGGAAAGAUGCAUCAAUGGCCUCAACAGAGGAUUGAGCAUCA

molecular target: T1, UNK ZnF1-3; experiment: nsRBNS (natural sequence RNA bind-n-seq); RBNS binding buffer (assumed for nsRBNS): 25 mM Tris pH 7.5, 150 mM KCl, 3 mM MgCl2, 0.01% Triton X-100, 500 ug/ml BSA, 20 U/ml SUPERase-In, 4 C; UNK is unkempt and MSI1 is Musashi-1; names of the RNAs are library labels; protein concentration not given here; high values mean tight binding

Binder | binding signal [enrichment R]
B1 | 1.35
B2 | 0.588
B3 | 0.672
B4 | 0.478
B5 | 0.537
B6 | 0.673
B7 | 1.22
B8 | 0.793
B9 | 2.28
B10 | 0.97
B11 | 1.53
B12 | 1.25
B13 | 1.18
B14 | 0.426
B15 | 0.238
B16 | 1.48
B17 | 1.92
B18 | 0.729
B19 | 1.45
B20 | 1.53
B21 | 1.42
B22 | 2.49

Reference: publication PMC12136788
